Measured values: paper PMC4336329 (PLoS ONE, 2015)
Out of some 310,000 compounds screened, about 14,000 (4.5%) showed an effect of 50% or more. The effect is printed as a negative number. The list shows a part of the results.

Molecular target: human ether-à-go-go-related gene (hERG) potassium channel (human, UniProt Q12809)
Test: primary screen, population patch clamp on CHO cells stably expressing hERG
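Further: peak tail current of the secondary pulse compared with the same well before compound.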

Chain of human ether-à-go-go-related gene (hERG) potassium channel (Q12809 whole entry, looked up): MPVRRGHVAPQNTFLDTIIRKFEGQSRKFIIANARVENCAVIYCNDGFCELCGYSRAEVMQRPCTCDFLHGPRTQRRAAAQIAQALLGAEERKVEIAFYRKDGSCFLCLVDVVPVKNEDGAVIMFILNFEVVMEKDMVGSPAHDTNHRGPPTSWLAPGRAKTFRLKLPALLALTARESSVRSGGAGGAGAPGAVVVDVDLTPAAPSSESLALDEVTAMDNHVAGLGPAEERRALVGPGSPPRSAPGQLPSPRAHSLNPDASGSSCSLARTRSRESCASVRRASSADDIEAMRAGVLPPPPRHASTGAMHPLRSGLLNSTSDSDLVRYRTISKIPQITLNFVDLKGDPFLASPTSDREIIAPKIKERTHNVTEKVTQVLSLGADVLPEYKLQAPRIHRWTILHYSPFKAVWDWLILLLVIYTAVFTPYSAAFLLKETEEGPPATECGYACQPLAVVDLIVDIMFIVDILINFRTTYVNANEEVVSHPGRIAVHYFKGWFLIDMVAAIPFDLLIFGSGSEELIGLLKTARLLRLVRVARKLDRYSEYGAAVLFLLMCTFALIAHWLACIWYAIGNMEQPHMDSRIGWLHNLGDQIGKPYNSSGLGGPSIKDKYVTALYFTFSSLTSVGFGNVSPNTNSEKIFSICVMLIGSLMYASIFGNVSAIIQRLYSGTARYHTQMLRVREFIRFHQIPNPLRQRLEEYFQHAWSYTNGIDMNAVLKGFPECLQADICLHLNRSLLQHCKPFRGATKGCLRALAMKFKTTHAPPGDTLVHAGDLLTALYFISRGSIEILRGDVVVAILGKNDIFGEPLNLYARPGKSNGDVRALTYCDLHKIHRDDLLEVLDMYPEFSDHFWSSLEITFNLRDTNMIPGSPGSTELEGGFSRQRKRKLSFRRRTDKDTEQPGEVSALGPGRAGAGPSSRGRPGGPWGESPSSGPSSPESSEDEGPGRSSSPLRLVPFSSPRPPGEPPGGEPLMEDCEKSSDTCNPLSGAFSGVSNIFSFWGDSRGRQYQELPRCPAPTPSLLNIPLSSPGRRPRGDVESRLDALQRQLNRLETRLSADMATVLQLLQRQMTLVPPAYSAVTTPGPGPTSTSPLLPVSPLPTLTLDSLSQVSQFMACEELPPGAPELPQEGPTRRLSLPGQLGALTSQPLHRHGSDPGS

Going from `COc1ccc(C(=O)N2c3ccccc3C(=O)OC2c2ccc3c(c2)OCO3)cc1` (centres unmarked) to `COc1ccc(-c2cc(=O)oc3c(C)c(OC(=O)c4cccs4)ccc23)cc1`, the “hERG current change (%, negative = inhibition) at 10uM” value rises from -2.15% to 9.83%.

Compared with `c1ccc(Cn2nnc3c(NCC4CCCO4)nc(C4CC4)nc32)cc1` (centres unmarked), `c1ccc(-n2nnc(-c3nccs3)n2)cc1` is higher in “hERG current change (%, negative = inhibition) at 10uM” value: 0.775% for the first, 7.76% for the second.

Going from `O=C(CCc1nc2ccccc2c(=O)[nH]1)Nc1nnc(SCc2ccccc2)s1` to `CCC(C)NC(=O)[C@H](CSCc1ccccc1)N1Cc2ccccc2C1=O` (some centres unmarked), the “hERG current change (%, negative = inhibition) at 10uM” value falls from -12.3% to -36.2%.

Compared with `COCCN(C(=O)c1sc2ccccc2c1Cl)c1c(N)n(CC(C)C)c(=O)[nH]c1=O`, `CCCCn1c(N)c(N(CCC(C)C)C(=O)c2cc(Cl)nc3ccccc23)c(=O)[nH]c1=O` is higher in “hERG current change (%, negative = inhibition) at 10uM” value: 0.256% for the first, 15.2% for the second.

Compared with `C=CCc1ccc(OCC(O)COc2ccc(CC=C)cc2OC)c(OC)c1`, `COc1ccc(-c2cc(N)n(S(=O)(=O)c3ccc(F)cc3)n2)cc1OC` is higher in “hERG current change (%, negative = inhibition) at 10uM” value: -24.5% for the first, 21.1% for the second.

Going from `COc1cc(CC(=O)O)c(C(C)=O)cc1OC` to `Cc1cccc(C(=O)NCC(=O)OC(C)C(=O)Nc2ccc(Cl)cn2)c1` (centres unmarked), the “hERG current change (%, negative = inhibition) at 10uM” value falls from 16.9% to -9.14%.

Going from `Nc1ccc(-c2nc3ncccc3o2)cc1` to `CC(C)c1ccc2oc(-c3ccc(NC(=O)c4ncn[nH]4)cc3)nc2c1`, the “hERG current change (%, negative = inhibition) at 10uM” value falls from 16.5% to 3.11%.

Going from `Cc1[nH]nc2c1C(=O)CCC2` to `O=c1c2c3c(sc2[nH]c(=S)n1Cc1ccco1)CCC3`, the “hERG current change (%, negative = inhibition) at 10uM” value falls from 12.4% to 6.17%.

Going from `CCN(CC)CCCn1c2c(c(SCC(=O)N3CCCc4ccccc43)nc1=O)CCC2` to `CCC(C(=O)NCCCN1CCOCC1)n1c2ccccc2c2nc(=O)cc(C)n21` (centres unmarked), the “hERG current change (%, negative = inhibition) at 10uM” value rises from -22.9% to 4.94%.

First: COc1ccc(-c2c(C(F)(F)F)nn(C)c2NC(=O)c2cccnc2)cc1
Second: O=C(CSc1ccc(Cl)cc1)NNC(=O)c1cccnc1
The “hERG current change (%, negative = inhibition) at 10uM” value of the first is higher: 2.41% for the first, -21% for the second.

Going from `COc1ccc(-n2nc(C(=O)NCC(=O)N3CCN(c4ccccc4F)CC3)c3ccccc3c2=O)cc1` to `CN(C(=O)CCNC(=O)Cn1cnc2ccccc2c1=O)c1ccc(Br)cc1`, the “hERG current change (%, negative = inhibition) at 10uM” value rises from 0.081% to 2.74%.

First: Cc1cccc(NC(=O)Cn2c(=O)n(CCC(=O)NC3CCCC3)c(=O)c3ccccc32)c1
Second: O=C(NC1CCCC1)c1ccc(Cn2c(=O)[nH]c3ccsc3c2=O)cc1
The “hERG current change (%, negative = inhibition) at 10uM” value of the first is higher: 12.1% for the first, -3.16% for the second.

Going from `N#CC(c1ccccc1)c1ccc(=O)[nH]n1` (centres unmarked) to `Cc1ccc(/C=N/n2c(C)nc3ccccc3c2=O)o1`, the “hERG current change (%, negative = inhibition) at 10uM” value falls from 19.6% to 10.9%.

Going from `NNC(=O)c1ccc(COc2cccc3ccccc23)cc1` to `O=C(N/N=C/c1ccco1)c1ccc(NC(=O)c2ccc(Cl)cc2)cc1`, the “hERG current change (%, negative = inhibition) at 10uM” value rises from 7.75% to 18.7%.

Going from `COc1ccc(OCc2nnc(SCC(N)=O)n2N)cc1` to `C#CCSc1nnc(-c2c[nH]c3ccccc23)n1C`, the “hERG current change (%, negative = inhibition) at 10uM” value rises from 15.5% to 16.3%.

Compared with `CCOc1ccccc1N(C)S(=O)(=O)c1ccc2c(c1)CC(C)N2C(=O)C1CC1` (centres unmarked), `CC1=CCC2C(=O)N(c3cccc(C(=O)NC(C)c4ccccc4)c3)C(=O)C2C1` (centres unmarked) is lower in “hERG current change (%, negative = inhibition) at 10uM” value: 9.49% for the first, -4.98% for the second.

Compared with `Cc1ccc(NC(=O)CN(C)C(=O)C(C)N2CCN(Cc3ccccc3C)CC2)cc1` (centres unmarked), `CNC(=S)N1N=C(c2ccc(C)cc2)CC1c1ccc(N(C)C)cc1` (centres unmarked) is higher in “hERG current change (%, negative = inhibition) at 10uM” value: -26.6% for the first, 11.8% for the second.

First: CC(C)CN(C(=O)COC(=O)c1ccc2c(c1)OCCO2)c1c(N)n(Cc2ccccc2)c(=O)[nH]c1=O
Second: Cc1ccc(Cn2nc(C)c(NC(=O)c3cc(-c4ccco4)on3)c2C)cc1
The “hERG current change (%, negative = inhibition) at 10uM” value of the first is higher: 5.66% for the first, -0.924% for the second.

Compared with `CCN1CCN(C(=O)C2CCN(C(=O)c3cc4sccc4n3CC)CC2)CC1`, `CCCC1=C(C(=O)OCC)C(c2ccco2)n2ncnc2N1` (centres unmarked) is higher in “hERG current change (%, negative = inhibition) at 10uM” value: -2.39% for the first, 2.43% for the second.

Going from `O=C1C=C(c2cccc3c2oc2ccccc23)C[C@@H](c2ccc(F)cc2)C1` to `Fc1ccc(-n2cc(CNCCc3cccnc3)c(-c3ccccc3Cl)n2)cc1`, the “hERG current change (%, negative = inhibition) at 10uM” value falls from -7.14% to -51.9%.

First: CC1CCCCC1NC1=NCCCS1 (centres unmarked)
Second: O=C(Nc1cccc2c1CCCC2)c1cc([N+](=O)[O-])ccc1Cl
The “hERG current change (%, negative = inhibition) at 10uM” value of the first is higher: 18.9% for the first, -9.88% for the second.

Compared with `Cc1sc(N/N=C/c2cccnc2)nc1-c1ccc(Cl)cc1`, `CC1CN(S(=O)(=O)c2ccc(C(=O)O)cc2)CC(C)O1` (centres unmarked) is higher in “hERG current change (%, negative = inhibition) at 10uM” value: 13.3% for the first, 19.3% for the second.
